Test results: PubChem BioAssay AID624296 (National Center for Advancing Translational Sciences (NCATS), 2012)
Out of some 350,000 compounds screened, about 9,900 (2.8%) were called active. The inconclusive results got no clear call from the source; some entries with a clear call stand among them for comparison. Calls follow the shape of the dose curve; as a rule, active = well fitted activation curve with a large enough effect; inconclusive = small, poorly fitted or top-dose-only effect; inactive = no such curve, though single readings can be large or run the other way. Potencies of inconclusive entries are left out as doubtful fits.

Assay: A quantitative high throughput screen for small molecules that induce DNA re-replication in MCF 10a normal breast cells. Also: nearly all actives have a fitted effect of over 50% in size.
Settings: MCF 10A DNA re-replication, Hoechst nuclear intensity, 48 h; series mostly up to 46.1 µM
Potency is read from the fitted curve at half-maximal effect; tags tell the direction and shape of the fitted curve.

| SMILES | Potency |
| --- | --- |
| CCCC(=O)NC(c1ccco1)c1c(O)ccc2ccccc12 (configuration not stated) | inconclusive [activator, single point] |
| CCCCn1nc2cc(C(=O)NCc3ccco3)ccc2c1OCC | inconclusive [activator, full curve, poor fit] |
| Cc1cc(=O)oc(C)c1C(=O)OCC(=O)c1ccc(Cl)c(Cl)c1 | inconclusive [activator, single point] |
| CCOC(=O)c1cccc(Nc2nc(-c3cccnc3)nc3ccccc23)c1 | active: 23.1 µM |
| C=CCOc1ccccc1C(=O)/C=C1/C(=O)Nc2ccccc21 | active: 3.66 µM |
| CC(=O)OCC1(C)CN(c2ccccc2)N(C(=O)c2ccc(C(C)(C)C)cc2)C1=O (configuration not stated) | inconclusive [activator, single point] |
| OC(C#CCCN1CCCCC1)(c1ccccc1)C1CCCCC1 (configuration not stated) | inconclusive [activator, partial curve, poor fit] |
| O=C(C1=C[C@H](C2CCCCC2)C[C@H](OCc2ccc(CO)cc2)O1)N1CCN(Cc2ccc3c(c2)OCO3)CC1 | inconclusive [activator, single point] |
| O=C(c1ccc(-c2cccc(C(F)(F)F)c2)o1)N1CCN(c2ccccc2O)CC1 | inconclusive [activator, single point] |
| NNC(=O)/C(=N/Nc1ccccc1)S(=O)(=O)c1ccc(Cl)cc1 | inconclusive [activator, single point] |
| O=C(NC(=S)N1CCc2ccccc21)c1ccccc1 | inconclusive [activator, partial curve, poor fit] |
| COc1ccc(/C=C/c2c(-c3ccccc3OC)sc3ccccc23)cc1OC | inconclusive [activator, partial curve, poor fit] |
| CC(C)CC(=O)C(=O)O | inactive |
| Cc1ccc(NC(=O)c2cccc(-n3cnnn3)c2)cc1Cl | inconclusive [activator, single point] |
| Cc1nn2c(-c3cccc(NC(=O)c4ccco4)c3)nnc2c2ccccc12 | inconclusive [activator, partial curve, poor fit] |
| Cc1ccc(S(=O)(=O)n2nccc2-c2c(-c3ccccc3)noc2C)cc1 | active: 11.6 µM |
| O=C(Nc1ccc(F)cc1)c1cccnn1 | inactive |
| COc1ccc(NCc2nnc(SCc3ccc(Cl)cc3)n2-c2ccccc2)cc1 | inconclusive [activator, single point] |
| Cc1ccccc1NC(=O)CCN1CCN(C)CC1 | inactive |
| COc1ccc(NC(=O)c2cn(CCC#N)nc2-c2cc3ccccc3o2)cc1 | inconclusive [activator, single point] |
| CCCCCN=C(N)N/N=C/c1c[nH]c2ccc(OC)cc12 | inconclusive [activator, single point] |
| CC(=O)Nc1sc2c(c1C(c1ccc(F)cc1)N1CCOCC1)CCCC2 (configuration not stated) | inconclusive [activator, single point] |
| Cc1ccc2cccc(OCc3ccccc3)c2n1 | inconclusive [activator, partial curve, poor fit] |

| SMILES | Potency |
| --- | --- |
| CC1=NN(c2ccc(N)cc2)C(=O)C1 | inconclusive [activator, partial curve, poor fit] |
| C[n+]1cccc(C(=O)O)c1 | inactive |
| S=C(NCCc1ccccc1)NCC(c1ccco1)N1CCCCC1 (configuration not stated) | inconclusive [activator, partial curve, poor fit] |
| COc1ccccc1NC(=O)C(=O)Nc1ccc2c(c1)N(C(=O)C1CC1)CCC2 | inconclusive [activator, full curve, poor fit] |
| COC(=O)c1cc(S(=O)(=O)N(Cc2ccccc2)C(C)(C)C)c[nH]1 | active: 23.1 µM |
| COc1ccc(N2C(=O)N3[C@H](c4cccc(C)c4)[C@@H]4C(=O)N(Cc5ccccc5)C(=O)[C@@H]4[C@]3(Cc3ccccc3)C2=O)cc1 | inconclusive [activator, full curve, poor fit] |
| O=C(Nc1nc2c(s1)CCCC2)c1nn(Cc2ccccc2)c(=O)c2ccccc12 | inconclusive [activator, partial curve, poor fit] |
| Nc1ccccc1SCc1cc([N+](=O)[O-])cc2c1OCOC2 | inactive |
| COc1cc(C=C(c2nc3ccccc3s2)c2nc3ccccc3s2)cc(OC)c1O | inconclusive [activator, partial curve] |
| N#CC1(NC(=O)Cn2cc(C(F)(F)F)cc(Cl)c2=O)CCCCC1 | inactive |
| CC1C(=O)CC(c2ccccc2)N(C)C1c1ccccc1 (configuration not stated) | active: 25.9 µM |
| CCCCCn1c(CN(C)Cc2ccccc2)nc2c1c(=O)n(C)c(=O)n2C | inconclusive [activator, single point] |
| CC(NC(=O)Nc1nnc(C(F)(F)F)s1)(C(F)(F)F)C(F)(F)F | active: 11.6 µM |
| Cc1ccc(N=N/C(=C\O)C(=O)c2ccncc2)cc1 | inconclusive [activator, single point] |
| CC(C)CC1NC(=O)N(CC(=O)NC2CCCc3ccccc32)C1=O (configuration not stated) | inactive |
| O=c1c2c3c(sc2nc(NCCO)n1Cc1ccco1)CCCCC3 | inconclusive [activator, full curve, poor fit] |
| CC(=O)N(c1ccc2oc(=O)sc2c1)S(=O)(=O)c1cccs1 | inconclusive [activator, single point] |
| CCc1c(C2(O)CCCCC2)[nH]c2cc(C(F)(F)F)ccc12 | inconclusive [activator, single point] |
| Cc1ccc2nc(-c3ccccc3)cc(C(=O)N3CCc4ccccc4C3)c2c1 | inconclusive [activator, single point] |
| Cc1cccc2cc3c(N)c(C(=O)N4CCc5ccccc54)sc3nc12 | inconclusive [activator, partial curve, poor fit] |
| CCN(CC)c1ccc(NC(=O)c2ccc(Cl)nc2)cc1 | active: 5.8 µM |
| Cc1ccc(S(=O)(=O)NCc2cccnc2)cc1C(=O)NC1CCCCC1 | inconclusive [activator, full curve] |
| Cc1ccc(C)c(NC(=O)CCCCCCCCCCC2COCCO2)c1 (configuration not stated) | inconclusive [activator, single point] |

| SMILES | Potency |
| --- | --- |
| COc1ccc(OCc2cc(C(=O)N3CCOCC3)no2)c(Cl)c1 | inactive |
| COc1c(C)cc(C(=O)C2CCCN(C(=O)CCc3scnc3C)C2)cc1C (configuration not stated) | inconclusive [activator, partial curve, poor fit] |
| OCC1OC(n2cnc3c(NCc4ccco4)ncnc32)C(O)C1O (configuration not stated) | active: 1.03 µM |
| CC(C)(C)c1ccc(C(=O)Nc2ccc(NC(=O)c3ccco3)cc2)cc1 | active: 13 µM |
| CCOc1ccc(CN2CCC(C(=O)Nc3cccc(-c4ccn[nH]4)c3)CC2)cc1Cl | inconclusive [activator, single point] |
| CC(=O)c1ccc(Nc2cc(C)nc3ncnn23)cc1 | inconclusive [activator, single point] |
| CCN(CC)C(=O)C(=O)Nc1cc(C(F)(F)F)ccc1Cl | inconclusive [activator, partial curve, poor fit] |
| COc1ccccc1Nc1nc(N)nc(-c2oc3ccccc3c2C)n1 | inconclusive [activator, partial curve, poor fit] |
| O=C(Nc1ccc(N2CCOCC2)cc1)c1cc(F)c(F)cc1Cl | inconclusive [activator, single point] |
| O=[N+]([O-])c1c(Nc2cccc(O)c2)cc(Cl)c2nonc12 | inconclusive [activator, single point] |
| CC(NC(=O)/C(=C/c1cccc([N+](=O)[O-])c1)NC(=O)c1ccco1)C(=O)O (configuration not stated) | inactive |
| COC(=O)c1sccc1-c1ccc(/C=N/OC(=O)c2ccccc2)o1 | inconclusive [activator, partial curve, poor fit] |
| CC(C)(C)OC(=O)N(CCc1ccccc1)Cc1ccc(OCc2cccc(NC(=O)C3CCCC3)c2)cc1 | inconclusive [activator, partial curve, poor fit] |
| NC(=O)/C(N=Nc1ccccc1)=N/Nc1ccccc1 | inactive |
| Cc1ccc(C(=O)N/C(N)=N/c2nc3ccccc3o2)cc1 | inconclusive [activator, partial curve, poor fit] |
| Cc1oc(-c2ccccc2Cl)nc1CSCC(=O)NC1CC1 | inconclusive [activator, partial curve, poor fit] |
| Cc1cccc(N2CCN(c3ccc(NC(=O)/C=C\C(=O)O)cc3)CC2)c1 | inactive |
| CC1CCCC(C)N1CCCNC(=O)c1nn(C)c2c1CSc1ccccc1-2 (configuration not stated) | inconclusive [activator, partial curve] |
| CCOc1ccc(C(=O)CCC(=O)Nc2cccc(S(=O)(=O)N3CCCCC3)c2)cc1 | inconclusive [activator, single point] |
| CC1=NN(C(=O)c2ccccc2C)C(O)(c2ccc(Cl)cc2)C1 (configuration not stated) | inconclusive [activator, single point] |
| Cc1ccc([C@H]2C(C(=O)O)=CC[C@@H](c3ccc(Cl)cc3)N2S(=O)(=O)c2ccccc2C)cc1 | inconclusive [activator, single point] |
